Measurements published in PubChem BioAssay (NCI).
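Method: 48-hour compound exposure of cells in 96-well plates, five concentrations, linear interpolation of endpoints. GI50: concentration for 50% inhibition of growth.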 Certain results were filed several times, with different values. Only these are listed. The source may hold further records. For some of these results: Records of one sample usually come from different ranges of test concentrations, not given here; a value can be the end of its range. For some of these results: The records of an entry are repeats in other runs, samples, wells, individuals or studies. Records carry a tag for their origin. Letters count within one entry.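 TGI: total growth inhibition.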

What was measured:
Assay in all cases: DTP human tumour cell line panel, 48 h
NCI-H460 lung = test system: NCI-H460 lung
OVCAR-4 ovarian = test system: OVCAR-4 ovarian
PC-3 prostate = test system: PC-3 prostate
OVCAR-3 ovarian = test system: OVCAR-3 ovarian
RPMI-8226 leukemia = test system: RPMI-8226 leukemia
MDA-MB-231 breast = test system: MDA-MB-231 breast
786-0 renal = test system: 786-0 renal
CAKI-1 renal = test system: CAKI-1 renal
NCI-H522 lung = test system: NCI-H522 lung
SK-MEL-5 melanoma = test system: SK-MEL-5 melanoma
ACHN renal = test system: ACHN renal
TK-10 renal = test system: TK-10 renal
MDA-MB-435 = test system: MDA-MB-435
U251 CNS = test system: U251 CNS
OVCAR-8 ovarian = test system: OVCAR-8 ovarian
IGROV1 ovarian = test system: IGROV1 ovarian
SR leukemia = test system: SR leukemia
HCT-116 colon = test system: HCT-116 colon
A549 NSCLC = test system: A549 NSCLC
UACC-62 melanoma = test system: UACC-62 melanoma
SK-MEL-2 melanoma = test system: SK-MEL-2 melanoma
UO-31 renal = test system: UO-31 renal
RXF 393 renal = test system: RXF 393 renal
HL-60(TB) leukemia = test system: HL-60(TB) leukemia
HOP-92 NSCLC = test system: HOP-92 NSCLC
K-562 leukemia = test system: K-562 leukemia
CCRF-CEM leukemia = test system: CCRF-CEM leukemia

C/C(=N/N=C(\[O-])c1ccncc1)C(F)(F)F.C/C(=N\N=C(/[O-])c1ccncc1)C(F)(F)F.[Ni+2]
GI50 (NCI-H460 lung): 1.08 nM and > 1 µM | TGI (NCI-H460 lung): 5 nM and > 1 µM | GI50 (OVCAR-4 ovarian): 0.421 nM and > 1 µM | TGI (OVCAR-4 ovarian): 5 nM and > 1 µM | GI50 (PC-3 prostate): 0.658 nM and > 1 µM | TGI (PC-3 prostate): 5 nM and > 1 µM | GI50 (OVCAR-3 ovarian): 2.82 nM and > 1 µM | TGI (OVCAR-3 ovarian): 5 nM and > 1 µM | GI50 (RPMI-8226 leukemia): 0.245 nM and > 1 µM | TGI (RPMI-8226 leukemia): 2.73 nM and > 1 µM | GI50 (MDA-MB-231 breast): 2.62 nM and > 1 µM | TGI (MDA-MB-231 breast): 5 nM and > 1 µM | GI50 (786-0 renal): 2.26 nM and > 1 µM | TGI (786-0 renal): 5 nM and > 1 µM | GI50 (CAKI-1 renal): 2.27 nM and > 1 µM | TGI (CAKI-1 renal): 5 nM and > 1 µM | GI50 (NCI-H522 lung): 1.21 nM and > 1 µM | TGI (NCI-H522 lung): 5 nM and > 1 µM | GI50 (SK-MEL-5 melanoma): 3.29 nM and > 1 µM | TGI (SK-MEL-5 melanoma): 5 nM and > 1 µM | GI50 (ACHN renal): 1.75 nM and > 1 µM | TGI (ACHN renal): 5 nM and > 1 µM | GI50 (TK-10 renal): 3.44 nM and > 1 µM | TGI (TK-10 renal): 5 nM and > 1 µM | GI50 (MDA-MB-435): 2.39 nM and > 1 µM | TGI (MDA-MB-435): 5 nM and > 1 µM | TGI (U251 CNS): 5 nM and > 1 µM | GI50 (OVCAR-8 ovarian): 2.47 nM and > 1 µM | TGI (OVCAR-8 ovarian): 5 nM and > 1 µM | GI50 (IGROV1 ovarian): 2.98 nM and > 1 µM | TGI (IGROV1 ovarian): 5 nM and > 1 µM | GI50 (SR leukemia): 1.38 nM and > 1 µM | TGI (SR leukemia): 5 nM and > 1 µM | GI50 (HCT-116 colon): 3.11 nM and > 1 µM | TGI (HCT-116 colon): 5 nM and > 1 µM | GI50 (A549 NSCLC): 2.46 nM and > 1 µM | TGI (A549 NSCLC): 5 nM and > 1 µM | GI50 (UACC-62 melanoma): 1.11 nM and > 1 µM | TGI (UACC-62 melanoma): 5 nM and > 1 µM | TGI (SK-MEL-2 melanoma): 5 nM and > 1 µM | GI50 (UO-31 renal): 2.5 nM and > 1 µM | TGI (UO-31 renal): 5 nM and > 1 µM | GI50 (RXF 393 renal): 3.4 nM and > 1 µM | TGI (RXF 393 renal): 5 nM and > 1 µM

Cc1cc(N=Nc2ccccc2C)ccc1N
TGI (HL-60(TB) leukemia): > 100 µM [sample A] and 7.34 µM [sample B]

O=[N+]([O-])c1ccc(OC2CC3C4C=CC3C2C4)c([N+](=O)[O-])c1 (centres undefined)
GI50 (HOP-92 NSCLC): > 100 µM [sample A, 1 test] and 5.34 µM [sample B, mean of 2 tests]

CC(C)(Br)C(=O)C(Br)Br
TGI (K-562 leukemia): 13.9 µM and > 309 µM | TGI (HL-60(TB) leukemia): 5.11 µM and > 309 µM | TGI (CCRF-CEM leukemia): 4.85 µM and > 309 µM
